# Source: the supplement of paper PMC7826260
# Some of the results follow. Cleavage of a single-stranded DNA pool by Rep nickase domains was read by sequencing for 1 h at 37 °C with 3 µM enzyme; only the middle of the 90-letter strands is printed. A value is the log2 ratio of uncut reads to the pool without enzyme; more negative means more cut, near 0 not cut, and no call is made. Counts are relative to all reads; values above 0 arise when much of the pool is cut.
# Tests used:
# Assay in all cases: uncleaved DNA left, log2 of reads against the no-enzyme library (log2 ratio); higher = less cleavage (more negative = more Rep cleavage of the k-mer); sequences stand for … in CTCGTCCG…ACCGGAGA
# [1] = tested on: T1, Rep nickase domain of Muscovy duck circovirus
# T1 sequence (residues 1-111 of Rep, tag left off): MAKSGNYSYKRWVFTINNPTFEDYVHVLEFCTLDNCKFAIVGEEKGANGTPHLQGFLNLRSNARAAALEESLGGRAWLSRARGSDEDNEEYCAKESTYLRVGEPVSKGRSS
# Protocol: (§1)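 A pool of 90-nt single-stranded DNAs with seven random bases just before the constant AC of the nick site (name = the seven bases) was cut by 3 µM recombinant His6-SUMO-tagged Rep nickase domain (300 nM DNA, 50 mM HEPES pH 8.0, 50 mM NaCl, 1 mM MnCl2, 1 h, 37 °C, three replicates). Uncut DNA was amplified and sequenced.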
# [2] = tested on: T2, Rep nickase domain of banana bunchy top virus
# T2 sequence (residues 1-94 of Rep, tag left off): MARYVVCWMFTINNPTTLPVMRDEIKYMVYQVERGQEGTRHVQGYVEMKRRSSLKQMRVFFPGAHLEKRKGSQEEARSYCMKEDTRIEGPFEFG
# Protocol: as §1
# [3] = tested on: T3, Rep nickase domain of cabbage leaf curl virus
# T3 sequence (residues 1-116 of Rep, tag left off): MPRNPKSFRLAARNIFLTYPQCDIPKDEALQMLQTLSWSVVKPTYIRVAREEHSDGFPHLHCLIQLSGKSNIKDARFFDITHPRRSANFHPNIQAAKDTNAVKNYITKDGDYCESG
# Protocol: as §1
# [4] = tested on: T4, Rep nickase domain of chickpea chlorotic dwarf virus
# T4 sequence (residues 1-124 of Rep, tag left off): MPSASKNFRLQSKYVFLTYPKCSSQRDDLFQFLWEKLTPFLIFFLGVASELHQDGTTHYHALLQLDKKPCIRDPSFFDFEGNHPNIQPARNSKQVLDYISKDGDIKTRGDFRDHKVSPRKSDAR
# Protocol: as §1
# [5] = tested on: T5, Rep nickase domain of faba bean necrotic yellows virus
# T5 sequence (residues 1-98 of Rep, tag left off): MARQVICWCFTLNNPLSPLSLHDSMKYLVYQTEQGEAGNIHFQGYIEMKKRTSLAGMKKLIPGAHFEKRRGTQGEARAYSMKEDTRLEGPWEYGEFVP
# Protocol: as §1
# [6] = tested on: T6, Rep nickase domain of maize striate mosaic virus
# T6 sequence (residues 1-117 of Rep, tag left off): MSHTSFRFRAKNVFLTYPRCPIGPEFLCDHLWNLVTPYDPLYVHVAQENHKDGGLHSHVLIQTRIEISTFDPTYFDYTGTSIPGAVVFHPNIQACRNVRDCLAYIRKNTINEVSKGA
# Protocol: as §1
# [7] = tested on: T7, Rep nickase domain of porcine circovirus 2
# T7 sequence (residues 2-116 of Rep, tag left off): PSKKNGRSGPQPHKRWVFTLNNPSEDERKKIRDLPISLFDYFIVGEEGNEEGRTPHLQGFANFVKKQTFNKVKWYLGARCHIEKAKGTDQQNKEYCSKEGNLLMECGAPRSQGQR
# Protocol: as §1
# [8] = tested on: T8, Rep nickase domain of tomato golden mosaic virus
# T8 sequence (residues 1-124 of Rep, tag left off): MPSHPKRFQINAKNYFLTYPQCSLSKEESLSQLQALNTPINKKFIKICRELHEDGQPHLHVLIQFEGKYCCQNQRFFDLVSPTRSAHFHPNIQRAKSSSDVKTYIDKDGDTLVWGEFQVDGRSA
# Protocol: as §1
# [9] = tested on: T9, Rep nickase domain of tomato yellow leaf curl virus
# T9 sequence (residues 1-136 of Rep, tag left off): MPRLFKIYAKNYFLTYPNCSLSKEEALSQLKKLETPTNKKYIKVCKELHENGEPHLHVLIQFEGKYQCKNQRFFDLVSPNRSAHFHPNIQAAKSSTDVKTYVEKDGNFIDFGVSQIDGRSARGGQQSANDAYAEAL
# Protocol: as §1
# [10] = tested on: T10, Rep nickase domain of wheat dwarf virus
# T10 sequence (residues 1-137 of Rep, tag left off): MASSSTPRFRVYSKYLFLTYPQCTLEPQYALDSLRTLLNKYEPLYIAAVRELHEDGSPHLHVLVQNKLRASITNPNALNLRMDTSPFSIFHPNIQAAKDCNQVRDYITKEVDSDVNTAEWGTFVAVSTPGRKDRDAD
# Protocol: as §1
Sequence,uncleaved DNA left (log2) [1],uncleaved DNA left (log2) [2],uncleaved DNA left (log2) [3],uncleaved DNA left (log2) [4],uncleaved DNA left (log2) [5],uncleaved DNA left (log2) [6],uncleaved DNA left (log2) [7],uncleaved DNA left (log2) [8],uncleaved DNA left (log2) [9],uncleaved DNA left (log2) [10]
TCGGCGC,0.0764,-0.0165,-0.656,-0.352,0.144,-0.89,0.0655,-0.141,-0.0538,-0.107
AAAATCT,-0.066,-0.0919,-3.14,-2.85,0.0265,-1.13,-1.48,-0.408,0.0564,-1.24
CCACAGG,0.0429,0.191,0.226,0.775,0.00264,0.196,0.151,0.103,0.106,0.14
GGGGAGA,0.123,0.217,0.906,2.02,0.049,2.35,0.222,0.193,0.139,0.219
CGCTTCG,0.0496,-0.0411,-0.783,0.15,-0.0275,-0.963,0.256,-0.0285,-0.0015,0.0915
ATACCGG,0.0253,-0.0163,0.358,1.1,0.00376,1.03,0.157,0.103,-0.0564,0.0432
CCTATTG,0.0147,-0.0358,-0.579,-0.558,0.0819,-1.22,0.0699,-0.11,-0.0337,-0.0302
CCTGGTA,-0.0326,0.156,0.0269,-0.3,0.0454,-0.199,0.0902,-0.0156,0.118,0.0854
GTAGGGC,0.0791,0.121,0.564,1.23,0.0929,1.4,0.139,0.108,-0.051,0.114
CGCAGTG,-0.0101,-0.0888,-0.359,-0.0269,-0.00881,-0.382,0.14,0.0901,-0.103,-0.00623
TCCGAGC,-0.152,-0.104,0.452,0.917,0.0121,0.583,-0.0364,-0.115,-0.0533,0.0664
GTACCAC,0.0486,0.171,0.331,0.828,-0.0722,1.42,0.0173,0.143,0.223,0.185
AGCCTTG,-0.218,-0.1,-0.121,0.118,-0.104,0.995,-0.0815,-0.133,-0.0565,-0.122
GTCAACT,0.0195,0.0565,0.229,0.118,-0.0067,1.55,-0.0319,0.0599,0.0279,0.0337
CCGAAAT,-0.0811,-0.0402,0.0516,-0.263,0.0559,-0.0309,-0.118,-0.104,0.0572,0.13
TAAATCT,-0.199,-0.195,-4.38,-3.46,0.011,-3.21,-2.02,-3.8,0.0156,-4.11
AATCCAG,0.0434,0.0313,-0.673,-0.487,0.0304,-1.11,0.095,-0.0428,0.0913,-0.0978
CTAAGTC,0.109,0.0468,-3.24,-2.97,0.079,-1.82,0.0217,-0.95,0.1,-1.89
TACAGTA,-0.104,-0.0677,-0.299,-2.31,-0.101,-0.645,-0.333,-0.0441,-0.105,-0.108
TGCACCA,-0.0331,0.121,0.194,-0.508,0.0426,-0.156,-0.187,0.023,0.094,0.133

Sequence,uncleaved DNA left (log2) [1],uncleaved DNA left (log2) [2],uncleaved DNA left (log2) [3],uncleaved DNA left (log2) [4],uncleaved DNA left (log2) [5],uncleaved DNA left (log2) [6],uncleaved DNA left (log2) [7],uncleaved DNA left (log2) [8],uncleaved DNA left (log2) [9],uncleaved DNA left (log2) [10]
GAGATAG,0.0643,0.0124,0.00507,0.644,0.0236,-0.367,0.0677,0.0247,0.0122,0.045
ATTCTGC,0.0108,0.0206,-0.369,-0.479,-0.00244,-1.14,0.0441,-0.0187,0.00556,-0.0313
TCGTTGG,0.0226,0.00521,-0.299,-0.509,-0.0778,-0.733,0.0841,0.00704,-0.0318,-0.0544
TCTAAGA,0.0819,0.0043,0.0399,0.0768,0.0728,-0.852,0.0152,-0.00397,-0.0952,-0.00197
TGCTACC,-2.52,-0.154,-2.15,-1.96,-0.93,-0.304,-3.06,-1.34,-0.139,-2.14
CTTTCCT,-0.92,-0.146,-0.23,-2.26,-0.0317,-0.713,-1.31,-0.157,-0.188,-0.0892
TCCCTGA,0.191,-0.0075,0.285,0.0976,0.0523,0.0381,-0.0314,0.123,0.0715,0.147
TCACTAC,0.0394,-0.13,-0.0632,-2.08,0.102,-0.546,-0.105,-0.0482,-0.0926,-0.0869
CTTGTCA,-0.105,0.0756,0.121,-0.65,-0.153,-0.481,-0.0663,-0.0707,0.208,0.033
TGAGTGG,0.0556,0.000743,0.144,0.324,0.0394,0.0774,0.106,0.0617,0.147,0.118
GCAAAAC,0.0279,0.0442,0.0884,0.17,-0.0204,-0.45,0.202,0.156,0.0857,0.0532
GCGGCTT,-0.119,-0.105,0.197,0.842,-0.181,1.67,-0.0583,-7.42e-05,-0.13,-0.167
AAGCGAG,-0.0208,-0.0213,0.00443,0.391,-0.0102,-0.0924,0.181,0.101,0.0587,0.0898
GTACAAA,0.0362,0.0889,0.317,0.862,0.0209,1.57,0.0385,0.132,0.148,0.171
AAAGTAG,0.0942,0.0334,-0.63,-0.489,0.0219,-1.2,0.236,0.0317,0.0943,-0.0636
CAAATCC,0.0224,0.143,-0.133,-0.517,-0.0389,-0.601,0.00147,-0.00323,0.0293,0.046
CACCTAA,-0.0198,0.00426,-0.24,-1.5,0.00997,-0.776,-0.26,-0.0326,-0.032,-0.0866
TTTACAA,0.0687,0.17,0.285,-0.563,0.0998,0.591,0.133,0.0761,0.176,0.144
TCGTGGG,-0.0297,-0.0447,-0.219,-0.196,0.153,-0.762,0.293,0.0964,0.023,0.0111
ACACCTC,-0.07,-0.0973,-0.108,0.218,0.0125,0.232,0.00374,0.0394,-0.223,0.0169

Sequence,uncleaved DNA left (log2) [1],uncleaved DNA left (log2) [2],uncleaved DNA left (log2) [3],uncleaved DNA left (log2) [4],uncleaved DNA left (log2) [5],uncleaved DNA left (log2) [6],uncleaved DNA left (log2) [7],uncleaved DNA left (log2) [8],uncleaved DNA left (log2) [9],uncleaved DNA left (log2) [10]
CGAGTCA,-0.0338,-0.0109,0.0456,-0.285,0.0365,-0.00269,-0.412,0.00224,0.107,-0.0411
ACGGTAA,-0.00223,0.00399,0.0235,0.106,0.114,-0.0516,0.131,0.2,-0.0187,0.0833
TAAGTTA,0.0476,0.00949,-1.14,-2.42,0.0478,-0.342,-0.00425,-0.0172,0.00528,-0.829
GTTCTGC,0.00803,0.00655,0.156,0.427,-0.0335,0.266,0.0299,0.0373,0.0372,-0.00429
GTAAGAC,0.0966,0.0911,-0.145,-0.784,-0.0367,1.5,0.157,0.0141,0.13,0.0722
AAGCGCG,-0.0905,-0.019,-0.715,-0.246,0.0676,-0.802,0.0533,0.0216,0.0738,-0.107
TTGCCCG,-0.39,-0.286,-0.741,-0.17,-0.0413,-0.91,-2.39,-0.0326,-0.104,-0.216
AAAAGCA,0.0635,0.109,-0.423,-1.48,0.143,-1.08,-0.0738,0.113,0.134,0.1
GACCATT,-0.18,-0.212,0.432,-0.486,-0.107,1.24,-0.741,-0.263,0.0117,0.0353
CCAGGCG,-0.0777,0.00894,-0.725,0.374,-0.0515,-0.454,0.0832,0.0194,0.0813,-0.146
TGCTGAA,-0.00425,-0.129,0.181,0.465,-0.00761,0.725,0.0417,0.0507,0.0726,-0.104
CGATCCC,-0.125,-0.0147,0.134,0.198,-0.0102,-0.0648,0.00133,-0.164,0.0564,-0.0121
GGTCGAT,0.0239,-0.0312,0.656,1.39,-0.0796,1.84,0.137,0.044,0.0772,0.126
ATTGTGA,0.00725,-0.0852,-0.752,-0.363,0.0154,-0.974,0.0891,-0.159,-0.0341,-0.151
AGTCCCT,0.0995,0.149,0.715,1.11,0.0296,1.75,-1.21,0.0756,0.0153,0.248
GGCACAT,0.0265,0.159,0.923,2.13,0.113,2.36,0.25,0.0658,0.00967,0.195
CCGTTGA,0.0275,-0.0486,-0.16,-0.242,0.0925,-0.588,0.0282,0.0354,0.123,-0.00791
TAAAATC,0.123,0.142,-2.95,-2.75,0.151,-1.42,0.182,-0.121,0.0688,-1.15
GCCCAAG,-0.0166,0.103,-0.367,-0.215,0.0137,-0.768,0.335,0.172,0.0664,-0.0465
GCGATAA,0.0256,0.0603,0.0796,0.49,-0.0743,0.6,-0.0104,0.119,0.0094,0.136
